Reference: the supplement of paper PMC3334620
In all, about 33,000 sequences were measured (“E-score (-0.5 to 0.5)”: median about -0.054, highest 2% from about 0.35 on). This is one part of the list.

target: T1, Stb5 (UniProt P38699); experiment: PBM E-score (8-mer binding enrichment) (E-score (-0.5 to 0.5)); higher = stronger / more preferred TF binding; most listed sequences are background and not binding sites; details: protein concentration: 200 nM; construct: GST-full length
T1 sequence: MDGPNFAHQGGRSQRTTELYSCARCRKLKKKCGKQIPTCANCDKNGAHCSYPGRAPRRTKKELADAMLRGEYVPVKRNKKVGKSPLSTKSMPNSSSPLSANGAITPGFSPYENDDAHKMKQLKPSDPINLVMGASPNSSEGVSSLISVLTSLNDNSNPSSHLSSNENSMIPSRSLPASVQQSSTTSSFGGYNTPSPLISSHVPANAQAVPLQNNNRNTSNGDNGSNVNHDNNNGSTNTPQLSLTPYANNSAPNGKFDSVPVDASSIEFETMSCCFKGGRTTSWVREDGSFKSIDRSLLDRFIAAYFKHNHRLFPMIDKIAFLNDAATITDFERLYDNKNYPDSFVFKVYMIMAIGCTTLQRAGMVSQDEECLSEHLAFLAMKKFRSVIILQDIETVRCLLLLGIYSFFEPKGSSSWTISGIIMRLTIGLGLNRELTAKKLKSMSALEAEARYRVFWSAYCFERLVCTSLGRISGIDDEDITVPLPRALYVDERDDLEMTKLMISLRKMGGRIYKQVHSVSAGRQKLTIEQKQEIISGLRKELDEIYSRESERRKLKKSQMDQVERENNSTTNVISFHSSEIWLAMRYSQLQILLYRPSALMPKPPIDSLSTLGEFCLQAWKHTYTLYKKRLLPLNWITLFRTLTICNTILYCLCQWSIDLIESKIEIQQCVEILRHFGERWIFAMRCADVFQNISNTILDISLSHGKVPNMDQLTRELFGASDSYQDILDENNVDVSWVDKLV
Procedure: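 Universal 'all 10-mer' protein binding microarrays (Agilent AMADID 015681) probed with GST-tagged S. cerevisiae TFs (full-length or DBD) made by in vitro transcription/translation (PURExpress), about 100-200 nM. Bound TF was detected with fluorescent anti-GST. Each ungapped 8-mer (which stands for itself and its reverse complement) is scored by the PBM enrichment score (E-score), a modified Wilcoxon-Mann-Whitney statistic from -0.5 to +0.5, computed with the Universal PBM Analysis Suite. Scale: above 0.35 generally sequence-specific binding.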

Sequence | PBM E-score
AGAATTAG | -0.205
GTTTGTCA | -0.102
ATGCCTAC | -0.219
TGAAGCAA | -0.0466
CCTGACTA | -0.138
ATAATCTC | -0.0165
GCAACCGA | -0.144
GGATGTGA | -0.109
AATAGTGG | -0.138
TCTAAGCA | -0.0121
AAAAATCT | -0.15
GGAATTCC | -0.0709
GAACCCGC | 0.199
AACGAGGA | -0.126
AGAGTTAA | -0.131
CGGTCGGC | 0.352
AACCCGTG | -0.0372
AACTTGCC | -0.0885
CGAAGTTC | -0.147
GAACTCGA | -0.163
AGAAAAGA | -0.0868
CACCAATG | 0.0086
AGAGTCGG | 0.252
TCTACGCA | -0.141

Sequence | PBM E-score
CCGATGGA | 0.307
GAAGACAC | 0.161
CGTTTAAA | 0.185
AATGCACG | 0.031
AGTTTAGC | 0.0316
CAGTTTAC | -0.261
GACCTCGC | -0.00357
CAAAATCC | 0.182
ATAACCAA | -0.156
ATAATCCC | 0.389
AAGTCACG | 0.0981
AGCCACAA | 0.0182
CACAGCAA | 0.0324
ACTGCTAT | -0.214
CGACTCAA | -0.0531
GTCCCCGA | 0.185
CGACGTAA | 0.0466
ACCGGTAT | 0.336
CGGTAAAC | 0.0925
AATGGCGC | 0.118
AAGGTGGA | -0.0638
AGACATCG | -0.183
ATCCTGAA | -0.247
ATGCCAAA | -0.218

Sequence | PBM E-score
CGATTACA | 0.0159
TACCATCA | -0.228
ATAATAAA | 0.179
CGCTTTGA | 0.0497
AGGGGACC | -0.0462
GCCTACTA | -0.173
ATTAGTTG | -0.148
CTAATACC | 0.261
ACTAGTCC | 0.122
AACTCGCG | -0.0104
GGGTAAGA | 0.00203
GCGCAAGC | -0.0451
ACACCAGC | -0.14
ACGCTTAA | -0.31
TAGACTCA | -0.131
ACTCGGTC | 0.147
GCATAAAC | -0.0373
ATCCTGTC | 0.0461
AACATAGT | 0.00286
ATAGCTCA | -0.209
CACTAAGA | -0.0925
CGGGCCAA | 0.22
AAAAAGAC | 0.0177
AGCTGATA | 0.0497

Sequence | PBM E-score
TCAGACGA | -0.249
CACATCAC | -0.0565
AAGAGGAC | -0.134
CTAAGTAC | 0.0899
AGAGCAAT | -0.0796
AAGAGCGG | 0.333
TCACCCGA | 0.089
CACCTTTC | -0.058
ATATTTAA | -0.0163
GACATTGC | -0.109
ATGGTCCC | -0.0702
CGGTACTC | 0.201
GGCGTGTA | 0.0147
ATCGTAAA | -0.299
GCAACGCA | -0.0493
CTGGGTGA | -0.179
CGGTGTCC | 0.369
AAGATAAC | 0.00498
TGCCCTAA | -0.114
ACTTTTTA | -0.0299
GCAGCGCC | 0.184
ACGTAGCT | -0.182
